Laboratory results reported in PubChem BioAssay AID360 (National Center for Advancing Translational Sciences (NCATS), 2006).
In all, about 48,000 compounds went through this assay and about 550 (1.1%) were called active. Roughly 4% stayed inconclusive and do not appear here. No stated cut-off is given here; in the data, active means potency below about 15 µM; inconclusive means mostly about 16 µM to 33 µM; inactive means weaker than that. Some of the results follow.

Molecular target: Lysosomal acid glucosylceramidase (Homo sapiens) (UniProt P04062)
Test: Glucocerebrosidase;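 further: the screen sought inhibitors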
Conditions: purified enzyme, resorufin glucoside fluorescence (screen aimed at inhibitors), 20 min
Summary of the method: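 Normal human glucocerebrosidase (0.2 nM final) was assayed with resorufin β-D-glucopyranoside (30 uM final) in 50mM citric acid/KH2PO4, 10mM sodium taurocholate, 0.01% tween-20, pH 5.9. Compounds were titrated; fluorescence (Ex 548, Em 600) read after 20 min at RT.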
Potency means the concentration at half of the fitted maximal effect.

Sequence of UniProt P04062 (P04062 whole entry, looked up): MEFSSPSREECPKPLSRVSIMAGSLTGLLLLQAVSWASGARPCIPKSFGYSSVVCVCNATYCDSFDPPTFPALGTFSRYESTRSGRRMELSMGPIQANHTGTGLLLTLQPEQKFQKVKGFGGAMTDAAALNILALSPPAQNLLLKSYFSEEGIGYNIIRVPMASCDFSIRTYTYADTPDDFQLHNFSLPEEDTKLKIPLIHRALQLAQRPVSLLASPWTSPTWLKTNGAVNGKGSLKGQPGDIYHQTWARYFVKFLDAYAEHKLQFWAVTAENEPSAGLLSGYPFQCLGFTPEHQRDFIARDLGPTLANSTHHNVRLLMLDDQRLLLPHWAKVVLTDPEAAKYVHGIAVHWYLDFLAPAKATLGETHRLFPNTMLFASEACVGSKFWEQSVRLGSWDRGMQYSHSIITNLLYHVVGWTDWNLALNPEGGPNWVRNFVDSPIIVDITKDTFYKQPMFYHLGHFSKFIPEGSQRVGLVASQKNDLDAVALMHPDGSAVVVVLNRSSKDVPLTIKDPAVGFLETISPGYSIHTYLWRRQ

Row | SMILES | Potency
1 | CCNc1nc(N)nc(Oc2ccc(OCC)nn2)n1 | inactive: > 76.9 µM
2 | O=C(NCC(c1cccnc1)N1CCN(c2ccccc2)CC1)c1ccc2c(c1)OCO2 (configuration not stated) | inactive: > 76.9 µM
3 | c1c2c(cc3sc(N4CCCCC4)nc13)OCCO2 | inactive: > 76.9 µM
4 | CCn1ncc(Br)c1C(=O)Nc1cc(C(=O)OC)ccc1C(=O)OC | inactive: > 76.9 µM
5 | CC(C)N(C#N)c1nc(N2CCOCC2)nc(N2CCOCC2)n1 | inactive: > 76.9 µM
6 | CCOc1ccccc1N1CCN(CC(=O)Nc2nnc(CC)s2)CC1 | inactive: > 76.9 µM
7 | CCOc1cc2[nH]c(=O)n(CC3CCC(C(=O)NC(C)CC)CC3)c(=O)c2cc1OCC (configuration not stated) | inactive: > 76.9 µM
8 | O=C(Oc1ccc(Br)cc1)C1CC(=O)N(c2ccc(F)cc2)C1 (configuration not stated) | inactive: > 76.9 µM
9 | O=C(COc1ccccc1)N1CCN=C1c1ccccc1 | inactive: > 76.9 µM
10 | C=CCNC(=O)CC(C)C(CCCCC)C(=O)O (configuration not stated) | inactive: > 76.9 µM
11 | O=C(CCc1ccccc1)Nc1nc2n(n1)C(c1ccccc1)CC(=O)N2 (configuration not stated) | inactive: > 76.9 µM
12 | C=CCOc1cccc(C2/C(=C(\O)c3ccc(F)cc3)C(=O)C(=O)N2CCN(C)C)c1 (configuration not stated) | inactive: > 76.9 µM
13 | Cc1ccc(O)c(Sc2cc(C)ccc2O)c1 | inactive: > 76.9 µM
14 | COc1ccc(C2NC3=C(CCC3)C3(C#N)C4(N=C(N)C23C#N)OCCO4)cc1 (configuration not stated) | inactive: > 76.9 µM
15 | Cc1n[nH]c(C)c1S(=O)(=O)N1CCC(C(=O)O)CC1 | inactive: > 76.9 µM
16 | CCN(CC)S(=O)(=O)c1ccc(S(=O)(=O)Nc2cc3c(cc2C(C)=O)OCO3)cc1 | active: 14.9 µM
17 | COc1ccccc1N1CCN(C(=O)C2c3ccccc3Oc3ccccc32)CC1 | inactive: > 76.9 µM
18 | Cc1ccc(-c2sc(C)nc2CC(=O)O)cc1 | inactive: > 76.9 µM
19 | COc1ccc(/C(O)=C2\C(=O)C(=O)N(CC3CCCO3)C2c2cc(OC)ccc2OC)cc1 (configuration not stated) | inactive: > 76.9 µM
20 | CCCCN1CCc2c([nH]c3c(C)cccc23)C1=O | active: 9.79 µM
21 | Cc1c(NS(=O)(=O)c2ccc(Br)s2)c(=O)n(-c2ccccc2)n1C | inactive: > 76.9 µM
22 | COc1cccc(CNC(=O)Nc2cccs2)c1 | inactive: > 76.9 µM
23 | CNCCCc1[nH]nc(N)c1C#N | inactive: > 76.9 µM

Row | SMILES | Potency
24 | CCCCn1c(SCC(=O)Nc2nnc(C)s2)nc2c1c(=O)n(C)c(=O)n2C | inactive: > 76.9 µM
25 | CCOC(=O)C1=C(C)OC(N)=C(C#N)C1c1ccsc1 (configuration not stated) | inactive: > 76.9 µM
26 | O=C(Cn1nnc(-c2ccccc2NC(=O)c2ccco2)n1)Nc1ccccc1 | inactive: > 76.9 µM
27 | CN(Cc1ccccc1)C(=O)CCNS(=O)(=O)c1ccc2c(c1)oc(=O)n2C | inactive: > 76.9 µM
28 | Cc1cc(C)nc(-n2nc(C)cc2NC(=O)CN2CCC(C)CC2)n1 | inactive: > 76.9 µM
29 | COc1cc(C)c(S(=O)(=O)NC2CC(C)(C)NC(C)(C)C2)cc1C | inactive: > 76.9 µM
30 | O=C1CCCN1CN(C(=O)c1ccc2c(c1)OCO2)c1cccc(Cl)c1 | inactive: > 76.9 µM
31 | CCOC(=O)c1[nH]c(CSc2nnc(-c3ccncc3)n2CCOC)c(C(=O)OCC)c1C | inactive: > 76.9 µM
32 | CCCCCOC(=O)Cn1c(N2CCOCC2)nc2c1c(=O)[nH]c(=O)n2C | inactive: > 76.9 µM
33 | O=C(NCC(=O)N(c1ccc2c(c1)OCO2)C(C(=O)NC1CCCC1)c1cccs1)c1ccco1 (configuration not stated) | inactive: > 76.9 µM
34 | CCn1cc(Br)c(C(=O)NCc2ccco2)n1 | inactive: > 76.9 µM
35 | COc1ccc(-c2cc(C(F)(F)F)nc(NCc3ccco3)n2)cc1OC | inactive: > 76.9 µM
36 | CCc1ccc2c(CN3CCc4ccccc43)cc(=O)oc2c1 | inactive: > 76.9 µM
37 | CCC(C)COC(=O)c1ccc(C(=O)O)cc1 (configuration not stated) | inactive: > 76.9 µM
38 | O=C(CCS(=O)(=O)c1cccc2nonc12)N1CCOCC1 | inactive: > 76.9 µM
39 | COc1nc(NCCN2CCOCC2)nc(Nc2ccccc2)n1 | inactive: > 76.9 µM
40 | O=C(O)CCSCC(=O)Nc1c(C(=O)C2CC2)oc2ccccc12 | inactive: > 76.9 µM
41 | CCCc1cc(=O)[nH]c(Nc2cc(OC)ccc2OC)n1 | inactive: > 76.9 µM
42 | COc1ccc(OCCC(=O)NCc2ccccc2)cc1 | inactive: > 76.9 µM
43 | CCSc1nnc(NC(=O)CSc2nccn2-c2cccc(C)c2)s1 | inactive: > 76.9 µM
44 | CCc1cc(C)cc(OCCNC(=O)c2ncn[nH]2)c1 | inactive: > 76.9 µM
45 | COCCN(CCOC)S(=O)(=O)c1ccc(C(=O)Nc2nc(-c3ccncc3)cs2)cc1 | inactive: > 76.9 µM
46 | COc1ccccc1N1C(=O)C2C3C=CC(C3)C2C1=O (configuration not stated) | inactive: > 76.9 µM

Row | SMILES | Potency
47 | CC(Sc1ccc(Br)cc1)C(N)=O (configuration not stated) | inactive: > 76.9 µM
48 | Cc1[nH]nc2c1C(c1ccc(F)cc1)C(C#N)=C(N)O2 (configuration not stated) | inactive: > 76.9 µM
49 | CC(=O)Nc1ccc(C(=O)CSc2nnc(C)o2)cc1 | inactive: > 76.9 µM
50 | CON(C)c1nc(Oc2ccc(=O)[nH]n2)nc(N(C)C)n1 | inactive: > 76.9 µM
51 | Cn1c(NC(=O)c2ccc(Br)o2)cc(=O)n(C)c1=O | inactive: > 76.9 µM
52 | COCCn1c(=S)[nH]c2cc(C(=O)N3CCN(c4ccc(F)cc4)CC3)ccc2c1=O | inactive: > 76.9 µM
53 | COC(=O)Nc1ccc(S(=O)(=O)N2CCN(c3ccc(F)cc3)CC2)cc1 | inactive: > 76.9 µM
54 | Cc1cc(C)nc(N2CCCC(C(=O)Nc3ccc4c(c3)OCO4)C2)n1 (configuration not stated) | inactive: > 76.9 µM
55 | COC(=O)c1ccc(S(=O)(=O)NCCSc2nnc3c4ccccc4n(C)c3n2)cc1 | inactive: > 76.9 µM
56 | CCOc1ccccc1NC(=O)c1ccccc1-c1nc(-c2ccccc2)no1 | inactive: > 76.9 µM
57 | O=c1[nH]c(SCc2cc(=O)n3ccccc3n2)nc2c1CCC2 | inactive: > 76.9 µM
58 | CC(C)CCOCC(=O)Nc1cccc(C(=O)O)c1 | inactive: > 76.9 µM
59 | Cc1nn(CCO)c(C)c1Oc1ccccc1O | inactive: > 76.9 µM
60 | COCCn1nnnc1CN(Cc1cc2cc(OC)c(OC)cc2[nH]c1=O)C1CCCC1 | inactive: > 76.9 µM
61 | CC1CCC(C(C)C)C(OC(=O)COC(=O)c2ccc(=O)[nH]c2)C1 (configuration not stated) | inactive
62 | COCCNS(=O)(=O)c1ccc(OCC(=O)OC)c(Cl)c1 | inactive: > 76.9 µM
63 | CCC(Sc1ncccc1C(=O)OCCN1CCCC1=O)C(=O)NCc1ccco1 (configuration not stated) | inactive: > 76.9 µM
64 | O=C(NCc1ccc2c(c1)OCO2)C1CCC(CNS(=O)(=O)c2ccccc2)CC1 (configuration not stated) | inactive: > 76.9 µM
65 | O=C(CN1CCN(c2ccccn2)CC1)NC1CCCC1 | inactive: > 76.9 µM
66 | Cc1cccc(OCc2nnc(SCC(=O)N3CCCC3)n2C)c1 | inactive: > 76.9 µM
67 | Cn1cccc1Cc1nnc(SCC(=O)NCc2ccc3c(c2)OCO3)n1CCc1ccccc1 | inactive: > 76.9 µM
68 | Cc1nn(C)cc1C(N)=O | inactive: > 76.9 µM
69 | CC(C)NC(=O)c1ccccc1NC(=O)CCS(=O)(=O)Cc1ccccc1 | inactive: > 76.9 µM

Row | SMILES | Potency
70 | Cc1ccc2cc(C#N)c(SCC(=O)NCC3CCCO3)nc2c1C (configuration not stated) | inactive: > 76.9 µM
71 | COc1ccc(NC(=O)CC(=O)Nc2ccc(OC)cc2OC)c(OC)c1 | inactive: > 76.9 µM
72 | Cn1c(-c2nonc2NC(=O)c2ccc(C(C)(C)C)cc2)nc2ccccc21 | inactive: > 76.9 µM
73 | O=C(CSc1nnc(-c2ccc(S(=O)(=O)N3CCCC3)cc2)o1)NCc1ccco1 | inactive: > 76.9 µM
74 | CCSc1nnc2c(n1)OC=Nc1ccc(Br)cc1-2 | inactive: > 76.9 µM
75 | CCCn1cc(S(=O)(=O)CC(=O)Nc2ccc(OC)cc2OC)c2ccccc21 | inactive: > 76.9 µM
76 | c1ccc2c(-n3cccn3)cccc2c1 | inactive: > 76.9 µM
77 | CN(C)c1ccc2c(O)cc(=O)n(C)c2c1 | inactive: > 76.9 µM
78 | O=C1CC(=O)N(Cc2cccs2)C(=O)N1 | inactive: > 76.9 µM
79 | Cc1ccc(S(=O)(=O)c2c(C)nn(C(C)(C)C)c2OC(=O)c2ccc(Br)o2)cc1 | active: 12.5 µM
80 | CCC(C(=O)Nc1ncccn1)(C(F)(F)F)C(F)(F)F | inactive: > 76.9 µM
81 | O=C(Nc1ccccn1)NC12CC3CC(CC(C3)C1)C2 | inactive: > 76.9 µM
82 | COc1ccc(CCNC(=O)c2ccn[nH]2)cc1OC | inactive: > 76.9 µM
83 | CCc1ccccc1NC(=O)CC(O)(C(=O)OC)C(F)(F)F (configuration not stated) | inactive: > 76.9 µM
84 | O=C(O)Cn1c(SC2CCCCC2)nc2ccccc21 | inactive: > 76.9 µM
85 | CS(=O)(=O)N(CC(=O)NCCC1=CCCCC1)c1ccc2c(c1)OCO2 | inactive: > 76.9 µM
86 | COc1ccc(NC(=O)C2CCCN(S(=O)(=O)c3cccc4nonc34)C2)c(OC)c1 (configuration not stated) | inactive: > 76.9 µM
87 | C=CCn1c(SCc2nc3ccccc3c(=O)[nH]2)nnc1-c1cc2cc(Cl)ccc2o1 | inactive: > 76.9 µM
88 | O=C(Nc1ccc(F)cc1)N1CCN(c2nc3ccccc3s2)CC1 | inactive: > 76.9 µM
89 | CCOC(=O)c1ccc(-n2c(=S)sc3c(=O)[nH]c(C)nc32)cc1 | active: 6.79 µM
90 | O=C(CNCC1CCCO1)Nc1ccc(N2CCCCCC2)cc1 (configuration not stated) | inactive
91 | Cc1sc2ncn(CCC(=O)O)c(=O)c2c1C | inactive: > 76.9 µM
92 | O=C(O)C1C2C=CC(O2)C1C(=O)NCc1ccc(Cl)cc1 (configuration not stated) | inactive: > 76.9 µM
